Out of some 48,000 compounds screened, about 550 (1.1%) were called active. Roughly 4% stayed inconclusive and do not appear here. Rule as the data show it: active = potency below about 15 µM; inconclusive = mostly about 16 µM to 33 µM; inactive = weaker than that. This is one part of the list.
What follows are molecules tested against Lysosomal acid glucosylceramidase (Homo sapiens) (UniProt P04062) (assay: Glucocerebrosidase). Settings: purified enzyme, resorufin glucoside fluorescence (screen aimed at inhibitors), 20 min; series mostly up to 77 µM.
Sequence of UniProt P04062 (P04062 whole entry, looked up): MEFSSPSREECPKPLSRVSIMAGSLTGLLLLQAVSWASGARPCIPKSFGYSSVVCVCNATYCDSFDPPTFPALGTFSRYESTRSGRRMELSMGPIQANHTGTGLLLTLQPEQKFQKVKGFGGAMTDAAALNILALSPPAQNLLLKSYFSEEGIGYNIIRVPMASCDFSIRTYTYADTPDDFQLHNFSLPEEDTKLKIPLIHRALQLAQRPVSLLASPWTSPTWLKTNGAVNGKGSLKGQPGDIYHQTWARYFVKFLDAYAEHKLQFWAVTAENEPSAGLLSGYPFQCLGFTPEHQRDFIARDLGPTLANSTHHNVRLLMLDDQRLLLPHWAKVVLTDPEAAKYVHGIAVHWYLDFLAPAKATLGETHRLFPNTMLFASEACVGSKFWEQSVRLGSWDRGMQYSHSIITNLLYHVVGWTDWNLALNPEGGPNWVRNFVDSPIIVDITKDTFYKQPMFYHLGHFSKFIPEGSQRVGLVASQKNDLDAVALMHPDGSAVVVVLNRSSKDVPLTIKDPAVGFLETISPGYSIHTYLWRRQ
How it was run: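 Normal human glucocerebrosidase (0.2 nM final) was assayed with resorufin β-D-glucopyranoside (30 uM final) in 50mM citric acid/KH2PO4, 10mM sodium taurocholate, 0.01% tween-20, pH 5.9. Compounds were titrated; fluorescence (Ex 548, Em 600) read after 20 min at RT.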
With `O=C(NCC(c1cccs1)N1CCOCC1)c1cc2ccccc2o1` (stereo not given) the Potency was inactive: > 76.9 µM. For `COC(=O)CNc1nc(OC)nc(N(C)C)n1`, the Potency was inactive: > 76.9 µM. For `CCC(=O)N1CCN(C(=O)CC)C1c1ccccc1`, the Potency was inactive: > 76.9 µM. With `O=C(Cn1ncn2c(cc3ccccc32)c1=O)NCCC1=CCCCC1` the Potency was inactive: > 76.9 µM. With `O=C(OCC(=O)N1CCCC1)c1ccccc1OCc1ccccc1` the Potency was inactive: > 76.9 µM. In the case of `Cc1ccoc1C(=O)NCCCNC(=O)c1occc1C`, the Potency is reported as inactive: > 76.9 µM. In the case of `Fc1ccccc1Cn1nnc2c(NCCc3ccccn3)ncnc21`, the Potency is reported as inactive: > 76.9 µM. `CCOC(=O)C1=C(C)N(C)C(C)=C(C(=O)OCC)C1c1ccncc1` was tested, and the Potency was inactive: > 76.9 µM. In the case of `CCOC(=O)c1sc(N(Cc2ccccc2)C(=O)CSc2nnc(C3CC3)n2N)nc1C`, the Potency is reported as inactive: > 76.9 µM. For `C=CCc1ccccc1OCC(O)CN(C(C)C)C(C)C` (stereo not given), the Potency was inactive: > 76.9 µM. With `N=c1n(CCN2CCCCC2)c2ccccc2n1CC(O)COc1ccccc1` (stereo not given) the Potency was inactive: > 76.9 µM. In the case of `Cc1cc(C(=O)CSc2nc3ccccc3[nH]2)c(C)n1C`, the Potency is reported as inactive: > 76.9 µM. For `CSc1nc(N)nc(SCC(=O)c2ccc(C)cc2)c1C#N`, the Potency was inactive: > 76.9 µM. In the case of `O=C(COc1cc(Cl)c(Cl)cc1Cl)NCCN1CCOCC1`, the Potency is reported as inactive: > 76.9 µM. For `O=C(NCC1CCCO1)c1ccc(S(=O)(=O)N2CCCCC2)cc1` (stereo not given), the Potency was inactive: > 76.9 µM. `COCCNc1cc(C)nc2c3c(C)cc(C)nc3nn12` was tested, and the Potency was inactive: > 76.9 µM. With `CCCNc1nc2c(c(=O)[nH]c(=O)n2C)n1CCCc1ccccc1` the Potency was inactive: > 76.9 µM. For `Cc1ccc(S(=O)(=O)N2CCCC(C(=O)NCC3COCCO3)C2)cc1` (stereo not given), the Potency was inactive: > 76.9 µM. With `COC(=O)Cn1c(CN2CCC(Cc3ccccc3)CC2)nc2c1c(=O)n(C)c(=O)n2C` the Potency was inactive: > 76.9 µM. For `Cc1ccc(Cn2nnc3c(=O)[nH]c(C4CCN(S(=O)(=O)c5ccc(F)cc5)CC4)nc32)cc1`, the Potency was active: 5.49 µM. With `CS(=O)(=O)N1CCCC(C(=O)NCc2ccccn2)C1` (stereo not given) the Potency was inactive: > 76.9 µM. `CCCn1c(N2CCN(CC(=O)c3c[nH]c4ccccc34)CC2)nc2c1c(=O)[nH]c(=O)n2C` was tested, and the Potency was inactive: > 76.9 µM. With `CCC(=O)NCC(c1cccs1)N1CCOCC1` (stereo not given) the Potency was inactive: > 76.9 µM. In the case of `Cc1ccccc1Nc1nc(N)nc(CN2C(=O)NC3(CCCCC3C)C2=O)n1` (stereo not given), the Potency is reported as inactive: > 76.9 µM. With `COC(=O)CSc1nc2ncc(Cl)cc2[nH]1` the Potency was inactive: > 76.9 µM. In the case of `Cc1cc(C)nc(SCC(=O)c2cc3ccccc3oc2=O)n1`, the Potency is reported as inactive: > 76.9 µM. For `Cn1nnnc1SCC(=O)N1c2ccccc2Sc2ccc(Cl)cc21`, the Potency was inactive: > 76.9 µM. For `N#Cc1nc(COc2ccc(F)cc2)oc1N1CCN(Cc2ccccc2)CC1`, the Potency was inactive: > 76.9 µM. In the case of `CCC(C)(C)n1nnnc1C(c1cc2ccc(OC)cc2[nH]c1=O)N1CCN(C2CCCCC2)CC1` (stereo not given), the Potency is reported as inactive: > 76.9 µM. With `CCC1Oc2ccc(C)cc2N(CC(=O)NCCN2CCCCCC2)C1=O` (stereo not given) the Potency was inactive: > 76.9 µM. In the case of `Cc1c(Cl)cccc1-n1ccnc1SCC(=O)O`, the Potency is reported as inactive: > 76.9 µM. With `O=C(c1ccco1)N1CCN(S(=O)(=O)c2ccc3c(c2)CCN3C(=O)C2CCC2)CC1` the Potency was inactive: > 76.9 µM. In the case of `Cc1ccc(Cn2nnc(C(=O)Nc3cccc(C)c3C)c2N)cc1`, the Potency is reported as inactive: > 76.9 µM. In the case of `O=c1ccsn1Cc1ccccc1`, the Potency is reported as inactive: > 76.9 µM. For `CCC(=O)NC1(C(F)(F)F)C(=O)Nc2c1c(=O)n(C)c(=O)n2C` (stereo not given), the Potency was inactive: > 76.9 µM. `CC1C=Cc2ccccc2N1C(=O)c1ccccc1` (stereo not given) was tested, and the Potency was inactive: > 76.9 µM. `CC1Cc2ccccc2N1C(=O)CCS(=O)(=O)c1cccc2nonc12` (stereo not given) was tested, and the Potency was inactive: > 76.9 µM. For `CN(C(=O)c1cnccn1)c1nnc(-c2cnccn2)s1`, the Potency was inactive: > 76.9 µM. With `CCn1ncc(Br)c1C(=O)Nc1ccc(Cl)cn1` the Potency was inactive: > 76.9 µM. With `Cc1ccc(OCn2c(=O)sc3ccccc32)cc1` the Potency was inactive: > 76.9 µM. With `O=c1c2ccccc2nnn1CSc1nc2sc3c(c2c(=O)n1CC1CCCO1)CCC3` (stereo not given) the Potency was inactive: > 76.9 µM. With `Cc1cc(-c2ccc(Cl)cc2)n2nc(N)nc2n1` the Potency was inactive: > 76.9 µM. With `O=C1CCc2cc(S(=O)(=O)N3CCN(c4cccc(C(F)(F)F)c4)CC3)ccc2N1` the Potency was inactive: > 76.9 µM. In the case of `CCN(CCNC(=O)C1CCN(S(C)(=O)=O)CC1)c1ccccc1`, the Potency is reported as inactive: > 76.9 µM. With `O=C(Nc1ccc(Cl)c(Cl)c1)Nc1cc(C(=O)N2CCOCC2)ccc1N1CCCCC1` the Potency was inactive: > 76.9 µM. `COc1ccc(C2=NOC(C(=O)NC3CCCCC3)C2)cc1OC` (stereo not given) was tested, and the Potency was inactive: > 76.9 µM. With `CCOC(=O)c1ccc(-c2nnc(-c3ccc(Cl)cc3Cl)o2)cc1` the Potency was inactive: > 76.9 µM. With `CS(=O)(=O)N(CC(=O)Nc1cccc(F)c1)Cc1ccccc1` the Potency was inactive: > 76.9 µM. `COc1ccc(-n2nc(C(=O)NCC(=O)NCC3CCCO3)c3ccccc3c2=O)c(OC)c1` (stereo not given) was tested, and the Potency was inactive: > 76.9 µM. With `CCn1c(CNc2ccc(OC)cc2)nnc1SCC(=O)c1ccc(OC)cc1` the Potency was inactive: > 76.9 µM. In the case of `CCOc1ccc(-c2cc(C(=O)NCCCN3CCN(CC)CC3)c3ccccc3n2)cc1`, the Potency is reported as inactive: > 76.9 µM. In the case of `CCOc1ccccc1NC(=O)NC1CCN(CC(=O)Nc2ccc3c(c2)OCCO3)CC1`, the Potency is reported as inactive: > 76.9 µM. For `CCOC(=O)c1ccc(COc2nc3ccccc3nc2-c2ccccc2NC(C)=O)o1`, the Potency was inactive: > 76.9 µM. In the case of `CCCOc1ccccc1NC(=O)CC1Nc2ccccc2NC1=O` (stereo not given), the Potency is reported as active: 13.9 µM. In the case of `COc1ccc(-c2nc(CS(=O)(=O)CC(=O)NCCc3cc(OC)ccc3OC)c(C)o2)cc1`, the Potency is reported as inactive: > 76.9 µM. With `CCC(=O)N1CCCc2cc(S(=O)(=O)N3CCC(N4CCCCC4)CC3)ccc21` the Potency was inactive: > 76.9 µM. With `C=CCOc1ccc(Cl)cc1C(=O)O` the Potency was inactive: > 76.9 µM. `COc1ccc(-c2nnc3sc(COc4ccc(C)cc4)nn23)cc1` was tested, and the Potency was inactive: > 76.9 µM. With `CCCCn1c(Cl)nc2c1c(=O)n(C)c(=O)n2C` the Potency was inactive: > 76.9 µM. `Nc1c(C(=O)NC2CCCCC2)nsc1C(=O)OCC(=O)NC1CCCCC1` was tested, and the Potency was inactive: > 76.9 µM. With `O=C(Nc1ccccc1N1CCN(c2ccccc2)CC1)C1CCCCC1` the Potency was inactive: > 76.9 µM. For `CC(C)N(C(=O)CSc1nnc(NC(=O)C2CCC2)s1)C(C)C`, the Potency was inactive: > 76.9 µM. With `CCc1c(C(=O)Nc2cc(C)ccc2OC)[nH]c(C)c1C(C)=O` the Potency was inactive: > 76.9 µM. `Cc1cc(C)n(-c2nc3c(c(=O)[nH]c(=O)n3C)n2CC(O)COc2ccccc2)n1` (stereo not given) was tested, and the Potency was inactive: > 76.9 µM. In the case of `CNc1nc2c(c(=O)n(C)c(=O)n2C)n1Cc1ccccc1`, the Potency is reported as inactive: > 76.9 µM. For `Cc1ccc2cc(CN(Cc3ccco3)C(=O)c3ccccc3)c(=O)[nH]c2c1C`, the Potency was inactive: > 76.9 µM. For `Cn1c(N2CCC(C(N)=O)CC2)nc2c1c(=O)n(Cc1ccc(Br)cc1)c(=O)n2C`, the Potency was inactive: > 76.9 µM. `O=C(Cc1cccs1)N1CCCC(c2nc3c(nnn3Cc3ccc(F)cc3)c(=O)[nH]2)C1` (stereo not given) was tested, and the Potency was inactive: > 76.9 µM. In the case of `CCNC(=O)CC1C(=O)N(c2ccccc2)C(=O)N1CCc1ccc(OC)cc1` (stereo not given), the Potency is reported as inactive: > 76.9 µM. With `CCOc1cc(N2CCOCC2)c(OCC)cc1NC(=O)CN1C(=O)NC(Cc2ccccc2)C1=O` (stereo not given) the Potency was inactive: > 76.9 µM. For `Cc1ccccc1C(=O)N1CCCN(C(=O)c2ccccc2C)CC1`, the Potency was inactive: > 76.9 µM. In the case of `Cc1ccc(N2CC(C(=O)N3CCc4ccccc4C3)CC2=O)cc1` (stereo not given), the Potency is reported as inactive: > 76.9 µM. In the case of `COc1ccc(N2CCN(C(c3cccs3)C(C)NC(=O)c3ccco3)CC2)cc1` (stereo not given), the Potency is reported as inactive: > 76.9 µM. In the case of `Cc1cc(OC(=O)N2CCCCC2)cc(C)c1Cl`, the Potency is reported as inactive: > 76.9 µM. For `O=C(CCNS(=O)(=O)c1cccc2nsnc12)Nc1ccc2c(c1)OCCO2`, the Potency was inactive: > 76.9 µM. `O=C(Nc1ccc2c(c1)CCC2)C1COc2ccccc2O1` (stereo not given) was tested, and the Potency was inactive: > 76.9 µM. `CN1C(=S)SC(/[N+]([O-])=C\c2cccs2)C1(C)C` (stereo not given) was tested, and the Potency was inactive: > 76.9 µM. With `COC(=O)NCCOc1cc(C)ccc1C` the Potency was inactive: > 76.9 µM. In the case of `Cc1[nH]c2ccccc2c1CC(=O)O`, the Potency is reported as inactive: > 76.9 µM. With `O=C1CC(c2cccc(F)c2)C2=C(CCCC2=O)N1` (stereo not given) the Potency was inactive: > 76.9 µM. In the case of `O=C(COc1ccc(S(=O)(=O)N2CCCC2)cc1)NCCC1=CCCCC1`, the Potency is reported as inactive: > 76.9 µM. `O=c1nc(-c2ccccc2)c2cc(Cl)ccc2[nH]1` was tested, and the Potency was inactive: > 76.9 µM. With `O=C(CSc1nc2ccccc2c(=O)n1Cc1ccco1)N1CCCCCC1` the Potency was inactive: > 76.9 µM. `CC(C)Oc1cc2oc(=O)c3c(c2cc1Cl)CCC3` was tested, and the Potency was inactive: > 76.9 µM. In the case of `O=C(c1ccco1)[C@@H]1[C@@H]2C(=O)N(c3ccccc3)C(=O)[C@@H]2C2c3ccccc3C=CN21` (stereo not given in full), the Potency is reported as inactive: > 76.9 µM. For `CCCCCc1c(C)nc(Nc2nc(C)c3cc(OC)ccc3n2)[nH]c1=O`, the Potency was inactive: > 76.9 µM. `CCOc1ccc(N2C(=O)c3cccnc3C2=O)cc1` was tested, and the Potency was inactive: > 76.9 µM. In the case of `Cc1c(/C(O)=C2/C(=O)C(=O)N(CCN3CCOCC3)C2c2ccco2)cnn1-c1ccccc1` (stereo not given), the Potency is reported as inactive: > 76.9 µM. In the case of `Cc1csc(N(C)C(=O)CSc2nnc(COc3cccc4ccccc34)o2)n1`, the Potency is reported as “inactive”. For `COc1ccc(S(=O)(=O)N(C)CC(=O)N2CCC(C)CC2)cc1Cl`, the Potency was inactive: > 76.9 µM.

— PubChem BioAssay AID360 (National Center for Advancing Translational Sciences (NCATS), 2006)
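Also: the screen sought inhibitors.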
Potency is read from the fitted curve at half-maximal effect.
